Structures are written as SMILES. Screen size: about 310,000 compounds; about 14,000 (4.5%) showed an effect of 50% or more. Effects have a minus sign here. Some of the results follow.
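Note: peak tail current of the secondary pulse compared with the same well before compound.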

In this assay the target is human ether-à-go-go-related gene (hERG) potassium channel (human, UniProt Q12809). Put plainly: primary screen, population patch clamp on CHO cells stably expressing hERG.
human ether-à-go-go-related gene (hERG) potassium channel, sequence (Q12809 whole entry, looked up): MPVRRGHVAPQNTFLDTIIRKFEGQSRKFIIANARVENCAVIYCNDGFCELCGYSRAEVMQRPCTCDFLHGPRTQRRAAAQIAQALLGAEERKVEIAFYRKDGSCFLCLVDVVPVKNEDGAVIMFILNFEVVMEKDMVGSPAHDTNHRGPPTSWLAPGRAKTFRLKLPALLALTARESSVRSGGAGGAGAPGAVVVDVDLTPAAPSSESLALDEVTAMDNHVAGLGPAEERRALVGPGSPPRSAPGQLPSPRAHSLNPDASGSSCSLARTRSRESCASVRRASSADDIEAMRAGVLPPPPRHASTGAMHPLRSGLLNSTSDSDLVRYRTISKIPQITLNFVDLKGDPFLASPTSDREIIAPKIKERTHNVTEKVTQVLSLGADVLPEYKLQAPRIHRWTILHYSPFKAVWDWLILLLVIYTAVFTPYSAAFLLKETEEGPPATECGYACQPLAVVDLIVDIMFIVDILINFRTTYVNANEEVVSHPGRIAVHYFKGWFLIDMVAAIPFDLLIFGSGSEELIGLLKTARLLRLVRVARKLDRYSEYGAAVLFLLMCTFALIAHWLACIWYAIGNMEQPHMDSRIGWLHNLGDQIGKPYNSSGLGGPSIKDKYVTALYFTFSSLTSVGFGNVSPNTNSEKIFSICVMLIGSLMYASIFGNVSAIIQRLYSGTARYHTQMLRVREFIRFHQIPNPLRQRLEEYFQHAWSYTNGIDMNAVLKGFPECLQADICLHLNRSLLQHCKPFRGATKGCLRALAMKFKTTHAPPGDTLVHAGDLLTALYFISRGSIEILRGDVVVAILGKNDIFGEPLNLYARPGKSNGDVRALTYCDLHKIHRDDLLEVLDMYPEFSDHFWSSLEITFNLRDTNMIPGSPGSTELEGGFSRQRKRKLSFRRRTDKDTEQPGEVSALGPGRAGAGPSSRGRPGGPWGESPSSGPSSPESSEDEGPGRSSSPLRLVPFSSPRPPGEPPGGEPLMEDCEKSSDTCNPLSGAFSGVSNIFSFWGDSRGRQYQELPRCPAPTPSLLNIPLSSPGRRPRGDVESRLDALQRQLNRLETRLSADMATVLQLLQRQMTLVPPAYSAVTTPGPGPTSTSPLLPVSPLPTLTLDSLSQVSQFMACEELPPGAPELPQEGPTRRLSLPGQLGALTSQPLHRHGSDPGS
In the case of `COc1ccc(-c2noc(CCC(=O)NCCN(C)Cc3ccccc3)n2)cc1`, the “hERG current change (%, negative = inhibition) at 10uM” value is given as -30.5%.
With `COc1ccccc1CNC(=O)C1CCCN(S(=O)(=O)c2cccc3cccnc23)C1` (stereo not shown) the figure was -7.36%; with `COc1ccccc1OCC(=O)NCCSCc1cccc(Cl)c1`, -21.4%.
With `Cc1ccc(S(=O)(=O)c2nc(-c3ccccc3F)oc2N2CC(C)OC(C)C2)cc1` (stereo not shown) the figure was -7.94%.
The same measure for `Cc1cc(C(=O)OCC(=O)Nc2ccc(F)cc2)c(C)n1C1CC1`: 5.51%; for `Cc1ccc2c(CC(=O)N3CCN(c4ccccc4)CC3)coc2c1`: -22%.
Take `Cc1nn(C2CCS(=O)(=O)C2)c(Cl)c1/C=C/C(=O)OCC(N)=O` (stereo not shown): the “hERG current change (%, negative = inhibition) at 10uM” value is listed as 7.97%.
With `Cc1nn(-c2ccccc2)c(C)c1/C=N/NC(=O)c1cc(-c2cccc3ccccc23)n[nH]1` the figure was -7.94%; with `O=C(CSc1nc2c([nH]c3ccccc32)c(=O)n1-c1ccccc1F)NCC1CCCO1` (stereo not shown), -30.5%.
With `O=C(/C=C/c1ccccc1)NCCSCc1ccc(Cl)cc1` the figure was 5.19%; with `CC1=C(C(=O)N2CCCCC2)C2(CCC(C)CC2)OC1=O` (stereo not shown), -6.74%.
The same measure for `O=C1/C(=C/c2cccs2)SC(=S)N1CCCC(=O)N(CCO)c1ccccc1`: 19.4%; for `Cc1ccc(C(=O)N/C(=C\c2ccc(Br)cc2)c2nc(=S)[nH][nH]2)cc1`: 0.564%.
For the compound `Cc1cnc(NC(=O)CCc2ccccc2)s1`, the “hERG current change (%, negative = inhibition) at 10uM” value was found to be 12.2%.
With `CCCCCCCC1(C)NC(=O)NC1=O` (stereo not shown) the figure was 8.35%.
Consider `O=C(NCc1cccc(F)c1)C1CCC(=O)N(C2CC2)C1` (stereo not shown), for which the “hERG current change (%, negative = inhibition) at 10uM” value came out at 9.83%.
With `CCOc1cc(-c2noc(CCC(=O)NC3CCCCC3)n2)ccc1OC` the figure was -26.7%; with `CC(=O)C1=C(C)N(CC2CC2)C(=O)N[C@H]1c1ccc(Br)cc1`, -5.15%.
As to `COc1ccc(CNC(=O)c2ccc(CS(=O)(=O)Cc3ccccc3F)o2)cc1`, the “hERG current change (%, negative = inhibition) at 10uM” value is listed as -9.38%.
For the compound `COCCn1c(Cc2ccccc2)nnc1SCC(=O)N1CCCCC1C` (stereo not shown), the “hERG current change (%, negative = inhibition) at 10uM” value came out at 7.49%.
As for `FC(F)(F)c1ccccc1CNCc1ccc2c(c1)OCO2`, the “hERG current change (%, negative = inhibition) at 10uM” value came out at 0.962%.
With `O=[N+]([O-])c1ccccc1N/N=C\c1ccccc1F` the figure was 14.3%.
Regarding `CCOP(=O)(OCC)C(Nc1ccccc1)c1ccccc1C(F)(F)F` (stereo not shown), the “hERG current change (%, negative = inhibition) at 10uM” value is given as 13.7%.
For `Cc1ccc(N(CC(=O)Nc2ccc(F)c(Cl)c2)S(=O)(=O)c2c(C)noc2C)cc1`, the “hERG current change (%, negative = inhibition) at 10uM” value is 14%.
Turning to `COc1cc2[nH]c(=O)c(C(=O)NCCCN3CCOCC3)c(O)c2cc1OC.Cl`, the “hERG current change (%, negative = inhibition) at 10uM” value was found to be 9.48%.
`CCOc1ccc(-c2noc(-c3ccncc3)n2)cc1OCC`: the “hERG current change (%, negative = inhibition) at 10uM” value is 4.63%.
Regarding `c1ccc(C(c2nnnn2Cc2ccco2)N2CCN(c3nc4ccccc4s3)CC2)cc1` (stereo not shown), the “hERG current change (%, negative = inhibition) at 10uM” value is -8.11%.
The same measure for `COc1ccc(C(=O)NCC(=O)NCC(=O)OCc2ccc(Cl)cc2)cc1`: -6.07%; for `O=C(Nc1cccc(Cl)c1Cl)C1CCCC1`: 4.16%; for `Cc1csc2nc(O)c(C(=O)NCCN3CCOCC3)c(=O)n12`: 0.865%.
With `COC(=O)COc1cccc(/C=N/NC(=O)CCSc2ccccc2)c1`, the “hERG current change (%, negative = inhibition) at 10uM” value is recorded as -15.7%.
Regarding `Cc1cccn2c(=O)c3cc(C(=O)NC4CCCCC4C)n(C)c3nc12` (stereo not shown), the “hERG current change (%, negative = inhibition) at 10uM” value stood at 13.7%.
Regarding `Cc1cccc(N2CCN(C(=O)c3ccc(NS(=O)(=O)c4ccc5[nH]c(=O)[nH]c5c4)cc3)CC2)c1C`, the “hERG current change (%, negative = inhibition) at 10uM” value is 22.4%.
For `CC(NS(=O)(=O)c1ccccc1)C(=O)Nc1nccs1` (stereo not shown), the “hERG current change (%, negative = inhibition) at 10uM” value stood at 11.6%.
Consider `Cc1cccc(C(=O)N/N=C/c2ccc(OCC(=O)N3CCCCC3)cc2)c1`, for which the “hERG current change (%, negative = inhibition) at 10uM” value is 5.58%.
The same measure for `CCOc1ccc(NC(=O)CN(C)C(=O)/C=C/c2ccc(S(=O)(=O)N3CCCCCC3)cc2)cc1OCC`: 16.4%; for `O=C1CCCN1CCC(=O)N1CCCC(N2CCN(c3ccccc3F)CC2)C1` (stereo not shown): 3.51%.
In the case of `COc1ccccc1CNC(=O)CN1C(=O)NC(C)(c2ccc(C)cc2)C1=O` (stereo not shown), the “hERG current change (%, negative = inhibition) at 10uM” value is on record as 5.21%.
The same measure for `CCOC(=O)COc1ccc(/C=C2\C(=O)NC(=S)N(c3ccc(OC)cc3)C2=O)cc1OC`: 19.7%.
For `CC(=O)c1c(-c2ccccc2)c2cc([N+](=O)[O-])ccc2[nH]c1=O`, the “hERG current change (%, negative = inhibition) at 10uM” value is reported as 13.1%.
With `CCCCOC1(c2ccccc2)OC(=O)c2ccccc21` (stereo not shown) the figure was -14.7%; with `Cl.c1ccc(C(c2nnnn2Cc2ccco2)N2CCN(C3CCCC3)CC2)cc1` (stereo not shown), -53.5%; with `CN1C(=O)C(=O)N(CC(=O)Nc2ccccc2OC(F)F)C1=O`, 18%.
For `Cc1csc2ncc(C(=O)NCc3ccccn3)c(=O)n12`, the “hERG current change (%, negative = inhibition) at 10uM” value is given as 2.78%.
With `COC(=O)c1c(NC(=O)CSc2nncs2)sc2c1CCCCC2`, the “hERG current change (%, negative = inhibition) at 10uM” value is reported as -4.29%.
With `CCn1c(SCC(=O)Nc2ccc(Br)cc2)nc2sc3c(c2c1=O)CCN(C)C3` the figure was 15.9%.
The same measure for `CCOc1ccc(S(=O)(=O)Nc2cccc(C(=O)NCC(C)(C)N3CCOCC3)c2)cc1`: -34.5%; for `COc1ccc(C(=O)/C=C(/C)N(C)C)cc1`: -21.6%; for `Cc1ccc(S(=O)(=O)N(CC(=O)N2CCC(C(N)=O)CC2)Cc2ccc(F)cc2)cc1`: -9.78%.
With `O=C(CSc1nc2ncccc2[nH]1)NC1CCCC1` the figure was 7.42%.
With `COc1ccc2cc(/C=C/C(=O)N3CCN(CC(=O)N4CCCCCC4)CC3)ccc2c1`, the “hERG current change (%, negative = inhibition) at 10uM” value was -36.9%.
In the case of `O=C(O)c1ccc(-n2c(/C=C/c3cccc([N+](=O)[O-])c3)nc3ccccc3c2=O)cc1`, the “hERG current change (%, negative = inhibition) at 10uM” value was 8.06%.
With `Cl.Fc1ccc(C(c2nnnn2C2CCCCC2)N2CCCC2)cc1` (stereo not shown) the figure was -6.46%; with `CCOC(=O)C1(CC2CC2)CCN(C(=O)c2cc(C3CC3)nc3ccccc23)CC1`, -27%.
As for `Cc1cc(C(=O)C(=O)N(C)C)c(C)n1-c1ccc([N+](=O)[O-])cc1`, the “hERG current change (%, negative = inhibition) at 10uM” value is -25.7%.

Values taken from PMC4336329 (PLoS ONE, 2015).
